# The other results are listed elsewhere or left out. At the low end of the ranking, values are background and their order means little.
# Biological target: T1, GST-Rok (full length) (UniProt O34857)
# T1 sequence: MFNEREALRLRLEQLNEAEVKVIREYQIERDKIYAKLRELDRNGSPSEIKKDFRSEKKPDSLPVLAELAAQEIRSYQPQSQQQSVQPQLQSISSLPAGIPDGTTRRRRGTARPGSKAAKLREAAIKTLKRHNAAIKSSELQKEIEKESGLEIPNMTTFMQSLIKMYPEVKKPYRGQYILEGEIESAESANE
# Experiment: protein binding microarray;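 also: rank score from −0.5 (least bound) to 0.5 (best bound)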
# Details: Rok is a gene silencer of Bacillus subtilis; high values mean tight binding; most listed sequences are background and not binding sites; double strand, one strand shown
row,Sequence,binding signal [E-score]
1,AACGGCGG,-0.0818
2,GCGTCGCA,-0.0407
3,CCTCACAA,-0.0407
4,CGTCGCTC,-0.168
5,GAACTTCC,-0.00257
6,AAGTATGG,0.216
7,ATGACCGA,0.0852
8,GCGTGTGA,-0.0972
9,TAGAACAA,0.119
10,ATGGAGTG,0.105
11,AGTACGTC,0.0485
12,CATCTAGG,-0.00407
13,ACTTGTAC,0.345
14,CAACAATA,0.0121
15,GGGTGAAC,-0.0789
16,TCAAACGA,0.0971
17,AAGCATTG,0.0781
18,CGATCCCC,-0.348
19,AAGGTCCA,-0.187
20,ACCATGAA,-0.0879
21,GGTTCCAA,-0.225
22,CAATCAGC,0.0107
23,CCGGACGA,-0.173
24,AACCCCAC,-0.24
25,CTAAAGCC,-0.235

row,Sequence,binding signal [E-score]
1,CGTCCAAA,-0.244
2,AATGGCAA,-0.000442
3,CAGTGAAA,-0.014
4,CTTGAATA,-0.0285
5,GTGGCTCA,-0.145
6,CTCAGTGA,-0.0959
7,ATGTGGGG,-0.212
8,CGTTTTAG,0.0373
9,CACTCATC,-0.0594
10,AGGGAATA,0.00647
11,ATCTCTCG,0.0332
12,GTTAAGAA,-0.11
13,GATGATAA,0.134
14,TACAGAGA,0.21
15,CCTACCTA,0.22
16,CAGGGTCA,0.0548
17,TCCACTAA,0.126
18,CGCTGTAG,0.104
19,CGGGTATC,-0.0638
20,CAATGAGG,-0.219
21,ACCTCGCA,0.0865
22,AGTCCTGA,-0.162
23,GTGTATTA,0.205
24,AGTGGGAG,-0.296
25,CGGTCAGC,-0.261

row,Sequence,binding signal [E-score]
1,GCTGCTAC,0.0943
2,ATGGCTGG,-0.0984
3,GCTGGAAA,-0.121
4,AGACACCC,-0.0401
5,CATTATAC,0.265
6,AGAGTGAT,0.0166
7,ACGTACCG,-0.15
8,CTGTCTCC,-0.277
9,AGTCGGCG,-0.221
10,AACCGTCT,-0.0545
11,CAACCAAA,0.0924
12,AGAACGTC,-0.116
13,AAAGGCCC,-0.259
14,ACCTTTTA,0.051
15,CGAACTTC,0.118
16,GGGTCAGA,-0.201
17,CCAACTAC,0.123
18,AGATACAT,0.229
19,CCCACCTC,-0.236
20,ATTGGTTA,0.266
21,CCCCACAC,-0.39
22,CATCTTAG,0.118
23,ATCCGATC,0.0265
24,ACCTCTCA,-0.14
25,CGACTTAA,0.0646

row,Sequence,binding signal [E-score]
1,CACCGACA,-0.203
2,TGAGATAA,0.0648
3,AATCGTAA,0.136
4,AGCACGGG,-0.212
5,GGCGTTCA,-0.194
6,CGCCATGC,-0.319
7,CCGTCTGA,-0.144
8,AAAATGCT,0.0308
9,AGCATAAG,-0.0364
10,AGTGAACA,0.00621
11,CACCCGCC,-0.22
12,CCGGCTTC,-0.134
13,ACCCGCGA,-0.165
14,CCGAATCC,-0.0753
15,ATACGTGC,0.12
16,CCGTGCGC,-0.21
17,CAGAGCCC,-0.348
18,ATATTCAC,0.265
19,CCCCGCCC,-0.438
20,CCCACTGC,-0.283
21,CCCAACCG,-0.167
22,CGCGTCTA,0.00787
23,AGCTTTGG,-0.158
24,GCGCATCA,0.0639
25,GGAGTGAA,-0.227

row,Sequence,binding signal [E-score]
1,TCCTGGAA,-0.1
2,CCAGTTTC,-0.0817
3,TAGCGCGA,0.164
4,AGTGTCAT,-0.0192
5,TATAGGAA,0.114
6,AGAAGACT,-0.05
7,CCCCATAA,-0.219
8,AACTCGTG,-0.0922
9,AGTATGAT,0.24
10,CTTCTGTC,-0.234
11,TCATGCAA,0.102
12,AGGCTTCG,-0.0947
13,ATTACAAG,0.139
14,AAGAGTCC,-0.323
15,GGTTCCAC,-0.138
16,GATATAGA,0.228
17,ATCGAACG,-0.0279
18,ACATAGCG,0.175
19,AGAGGTCA,-0.232
20,AACACAGC,-0.0213
21,GATGTTAC,0.153
22,CGTGTATC,0.114
23,CGATCCTC,-0.319
24,CACCTATA,0.214
25,TAACGACA,0.237

row,Sequence,binding signal [E-score]
1,CACCAACC,-0.24
2,GACGAGGC,-0.197
3,AATGGAGT,0.0603
4,ATTCCGAG,0.0438
5,ATAGTAGC,0.315
6,GACCGCCA,-0.271
7,ACTGTTTC,0.0806
8,CATTGTCA,-0.00854
9,GAATGGGC,-0.201
10,AGAAGACG,-0.0852
11,ACAAATTC,0.238
12,CTGCGGTA,0.189
13,CTAGAAAA,0.291
14,CTCATAGA,-0.105
15,CTCACTGA,-0.118
16,ATGAACAT,0.205
17,CCAAAATA,0.164
18,TACATACA,0.341
19,AAGCAGCT,-0.0752
20,CTCTTCTA,0.0687
21,ATTGGGTA,0.292
22,GTACCACA,0.00441
23,AAGACCTG,-0.0804
24,GCCCGACA,-0.35
25,CCGTGAAA,-0.162

row,Sequence,binding signal [E-score]
1,ACCTAAGG,-0.117
2,ACCGAAGC,-0.116
3,ACCCCGCG,-0.324
4,AAGCGCTC,-0.0897
5,CATCGTGA,0.0959
6,AGATGTAG,0.312
7,AACGCATA,0.201
8,CTAGATTA,0.317
9,AATAACCA,0.237
10,TAAGACGA,-0.14
11,CGAGGTGC,-0.221
12,GGGTACTA,0.0543
13,GTGTCTGA,0.00226
14,CCTGGATA,-0.0171
15,AGCTGTAA,-0.0225
16,ACTCCCCC,-0.315
17,TTGGAAAA,0.0484
18,GACCAGAC,-0.176
19,AAATGTCG,-0.0294
20,AACTTGTG,0.119
21,AAAGACAA,0.02
22,GGCATCAC,0.0736

# — paper PMC6212790
